{
  "source": "PubChem BioAssay AID624202",
  "about": "(National Center for Advancing Translational Sciences (NCATS), 2012)",
  "note": "Out of some 380,000 compounds screened, about 4,000 (1.1%) were called active. The shares of active, inactive and inconclusive entries below differ from those in the screen. The call rests on the fitted dose curve; in most records, active means well fitted activation curve with a large enough effect; inconclusive means small, poorly fitted or top-dose-only effect; inactive means no such curve, though single readings can be large or run the other way. Potencies beside an inconclusive call are fits to weak or partial responses and may not hold up. Potency means the concentration at half of the fitted maximal effect; tags describe the fitted curve by direction and shape.",
  "data": [
    {"test": "qHTS Assay to Identify Small Molecule Activators of BRCA1 Expression; further: nearly all actives have a fitted effect of over 80% in size", "conditions": "MCF7-BRCA1-FFLuc reporter, luminescence, 48 h; activation: at 46.1 µM (top of the series), scaled: vehicle 0%, 10 µM genistein 100% unless noted", "method_in_brief": "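MCF7-BRCA1-FFLuc cells, 2000/well in phenol-red-free MEM, attached 2 h then treated 48 h at 37 C. Luciferase luminescence read 15 min after reagent; normalized to genistein maximum activation (10microM) and DMSO, concentration-response fitted.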", "values": [
      {"smiles": "CCN(c1cccc(C)c1)S(=O)(=O)c1ccc(-c2ccc(=O)[nH]n2)o1", "Potency": "inactive"},
      {"smiles": "COc1ccc(-c2cc(-c3ccccc3)n[nH]2)c(O)c1", "Potency": "inconclusive: 3.55 µM [activator, full curve, poor fit]"},
      {"smiles": "CC1CCc2c(sc3ncn(CCO)c(=O)c23)C1", "note": "(stereo not given)", "Potency": "inconclusive: 15.8 µM [activator, single point]"},
      {"smiles": "CC(C)(CN1CCNCC1)NS(=O)(=O)c1ccc(Cl)cc1", "Potency": "inactive"},
      {"smiles": "CC(C)Oc1cccc(C(=O)Nc2ccc(Br)cc2F)c1", "Potency": "inconclusive: 1.58 µM [activator, partial curve, poor fit]"},
      {"smiles": "O=C1CN(c2ccccc2)C(=S)N1C(=O)c1ccc(Br)cc1", "Potency": "active: 3.16 µM"},
      {"smiles": "C[C@@H]1CN([C@H](C)CO)C(=O)c2c(c3ccccc3n2C)-c2ccccc2CO[C@@H]1CN(C)C(=O)Nc1ccccc1C(F)(F)F", "Potency": "inconclusive: 3.16 µM [activator, partial curve, poor fit]"},
      {"smiles": "O=C(/C=C/c1ccc2c(c1)OCCCO2)c1ccc2ccccc2c1O", "Potency": "inconclusive: 11.2 µM [activator, partial curve, poor fit]"},
      {"smiles": "C/C(=N\\NC(=O)c1ccccc1O)c1ccc(NC(=O)c2ccccc2)cc1", "Potency": "inconclusive: 2.24 µM [activator, full curve, poor fit]"},
      {"smiles": "CC1CCN(CCc2nc3cc(NC(=O)Nc4ccccc4)ccc3n2C)CC1", "Potency": "active: 14.1 µM"},
      {"smiles": "COc1ccc(/C=C2\\SC(=O)N(CCn3cnnn3)C2=O)cc1", "Potency": "inactive"},
      {"smiles": "CCN1CCN(Cc2ccc(NC(=O)Nc3cccs3)cc2)CC1", "Potency": "inconclusive: 0.631 µM [activator, full curve, poor fit]"},
      {"smiles": "O=C(NC1CCCC1)C(c1ccccn1)N(C(=O)c1csnn1)C1CC1", "note": "(stereo not given)", "Potency": "inactive"},
      {"smiles": "COC(=O)c1cc2c(n1S(=O)(=O)c1ccc(C)cc1)C(=O)C(=O)c1[nH]cc(C(=O)OCc3ccccc3)c1-2", "Potency": "inactive"},
      {"smiles": "C=CCn1c2ccccc2c(=O)c2cc(C#CC[C@@H](C)O)ccc21", "Potency": "active: 3.55 µM"},
      {"smiles": "O=C(c1ccccc1)c1cc(-c2ccccc2)on1", "Potency": "inconclusive: 3.55 µM [activator, partial curve, poor fit]"},
      {"smiles": "COc1ccc(-c2cc(COc3ccccc3)on2)cc1", "Potency": "inconclusive: 11.2 µM [activator, partial curve, poor fit]"},
      {"smiles": "COc1ccccc1OCCNC(=O)c1ccc(Br)cc1", "Potency": "inconclusive: 11.2 µM [activator, partial curve, poor fit]"},
      {"smiles": "CC(=O)Nc1ccc(-c2ccc(NC(C)=O)c(O)c2)cc1O", "Potency": "inconclusive: 12.6 µM [activator, partial curve, poor fit]"},
      {"smiles": "CC1CCc2c(sc(N)c2C(N)=O)C1", "note": "(stereo not given)", "Potency": "inactive"},
      {"smiles": "CN(C)c1ccc(N=Cc2nc(-c3ccccc3)oc2OC(=O)c2cccc(Cl)c2)cc1", "Potency": "inconclusive: 4.47 µM [activator, partial curve, poor fit]"},
      {"smiles": "CCCN1C(=O)C(=O)c2cc(C)ccc21", "Potency": "inactive"},
      {"smiles": "Cc1cc(Cl)c2oc(C(=O)N3CCN(c4cccc(C)n4)CC3)c(C)c2c1", "Potency": "inconclusive: 17.8 µM [activator, single point]"},
      {"smiles": "CCOC(=O)Nc1ccc2c(C)cc(=O)oc2c1", "Potency": "inconclusive: 3.98 µM [activator, partial curve, poor fit]"},
      {"smiles": "CCCNC(=O)c1oc2ccc3c(c2c1C)C(=O)CC(C)(C)O3", "Potency": "inconclusive: 2.24 µM [activator, partial curve, poor fit]"},
      {"smiles": "Cc1ccc(NC(=O)/C(Cl)=C/c2ccccc2)cc1C", "Potency": "inconclusive: 1.26 µM [activator, full curve, poor fit]"},
      {"smiles": "Cc1ccc(/C(N)=N/OC(=O)COc2ccccc2Cl)cc1", "Potency": "inconclusive: 7.94 µM [activator, partial curve, poor fit]"},
      {"smiles": "COc1cccc(C2CC(=O)Nc3c2ccc(C)c3C)c1OC", "note": "(stereo not given)", "Potency": "inactive"},
      {"smiles": "CCOC(=O)C1=CN(Cc2ccco2)S(=O)(=O)N(C)C1c1ccccc1", "note": "(stereo not given)", "Potency": "inactive"},
      {"smiles": "COCCNC(=S)N/N=C(\\C)c1ccc(OC)cc1", "Potency": "inactive"},
      {"smiles": "CC(=O)c1c(C)[nH]c(C(=O)CSc2ccc(F)cc2)c1C", "Potency": "inconclusive: 1 µM [activator, full curve, poor fit]"},
      {"smiles": "COc1ccc(CNC(=O)C2COc3ccccc3O2)cc1", "note": "(stereo not given)", "Potency": "inconclusive: 12.6 µM [activator, partial curve, poor fit]"},
      {"smiles": "CC(C)(C)c1cc(NC(=O)c2cccs2)no1", "Potency": "inconclusive: 0.631 µM [activator, full curve, poor fit]"},
      {"smiles": "COc1ccc(Nc2ncc(F)c(N3CCOCC3)n2)cc1", "Potency": "inconclusive: 0.631 µM [activator, full curve, poor fit]"},
      {"smiles": "Cc1c(C(=O)Nc2cc(F)ccc2F)sc2nc3n(c(=O)c12)CCCCC3", "Potency": "inconclusive: 2.82 µM [activator, full curve, poor fit]"},
      {"smiles": "CCCCN(CCO)c1ncnc2sc(-c3ccccc3)cc12", "Potency": "inactive"},
      {"smiles": "O=C(COC(=O)c1ccc2c(c1)OCO2)Nc1cccc(F)c1", "Potency": "inactive"},
      {"smiles": "Cc1ccc(Nc2nc(-c3ccncc3)cs2)cc1", "Potency": "inconclusive: 7.08 µM [activator, partial curve, poor fit]"},
      {"smiles": "Nc1nc(-c2cccc(F)c2)cs1", "Potency": "active: 11.2 µM"},
      {"smiles": "C=CCC(CC(O)COCCC)C(=O)NNC(=S)Nc1ccccc1", "note": "(stereo not given)", "Potency": "inconclusive: 28.2 µM [activator, single point]"},
      {"smiles": "CC(=O)c1cccc(NC(=O)c2noc3c2CCc2ccccc2-3)c1", "Potency": "inconclusive: 2 µM [activator, partial curve, poor fit]"},
      {"smiles": "Cn1c(NC(=O)c2cc(-c3ccc4c(c3)OCO4)nc3ccccc23)cc(=O)n(C)c1=O", "Potency": "inconclusive: 22.4 µM [activator, single point]"},
      {"smiles": "O=C(c1ccco1)N1CCN(Cc2c(F)cccc2Cl)CC1", "Potency": "inconclusive: 11.2 µM [activator, partial curve, poor fit]"},
      {"smiles": "Cc1oc2ncn(C)c(=O)c2c1C(=O)N1CCN(c2cccc(C(F)(F)F)c2)CC1", "Potency": "inactive"},
      {"smiles": "O=C(COc1ccc(Br)cc1Br)NC(=S)Nc1cccc(CO)c1", "Potency": "inconclusive: 35.5 µM [activator, partial curve, poor fit]"}
    ]}
  ]
}
